# Test results: the supplement of paper PMC12217912
# The list shows a part of the results. Sequences were assembled here from the parent chain. Inactive controls read about 0.05.
# B1: TEV protease; numbered along this chain (parent)
# chain: MGESLFKGPRDYNPISSSICHLTNESDGHTTSLYGIGFGPFIITNKHLFRRNNGTLVVQSLHGVFKVKDTTTLQQHLVDGRDMIIIRMPKDFPPFPQKLKFREPQREERICLVTTNFQTKSMSSMVSDTSCTFPSGDGIFWKHWIQTKDGQCGSPLVSTRDGFIVGIHSASNFTNTNNYFTSVPKNFMELLTNQEAQQWVSGWRLNADSVLWGGHKVFMVKPEEPFQPVKEATQL
# Variants of: B1
# Test: raw area under fraction-flipped curve 0-4 h after induction (AUC4h, not background-subtracted), DNA-recorder readout of cleavage of the substrate (dimensionless); higher = more cleavage of the substrate by the protease variant
# Settings: temperature: 34 °C; time window: 0-4 h after rhamnose induction
# 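Also: Bxb1 expression induced with 0.2% (w/v) L-rhamnose at OD600 near 0.5, cultures sampled hourly, flipped fraction per protease–substrate barcode pair counted by paired-end Illumina sequencing.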
Variant,area with substrate FNLYFQS,area with substrate KNLYFQS,area with substrate SNLYFQS,area with substrate YNLYFQS,area with substrate HNLYFQS,area with substrate LNLYFQS,area with substrate MNLYFQS,area with substrate TNLYFQS,area with substrate WNLYFQS,area with substrate GNLYFQS,area with substrate INLYFQS,area with substrate NNLYFQS,area with substrate PNLYFQS,area with substrate VNLYFQS,area with substrate RNLYFQS,area with substrate QNLYFQS
MGESLFKGPRDYNPISSSICHLTNESDGHTTSLYGIGFGPFIITNKHLFRRNNGTLVVQSLHGVFKVKDTTTLQQHLVDGRDMIIIRMPKDFPPFPQKLKFREPQREERICLVTTNFQTKSMSSMVSDTSGTFPSGDGIFWKHWIQTKDGQCGSPLVSTRDGFIVGIHSASNFTNTNNYFTSVPKNFMELLTNQEAQQWVSGWRLNADSVLWGGHKVFMVKPEEPFQPVKEATQL [C131G],0.047,0.0804,0.0755,0.0518,–,–,–,–,–,–,–,–,–,–,–,–
MGESLFKGPRDYNPISSSICHLTNESDGHTTSLYGIGFGPFIITNKHLFRRNNGTLVVQSLHGVFKVKDTTTLQQHLVDGRDMIIIRMPKDFPPFPQKLKFREPQREERICLVTTNFQTKSMSSMVSDTSCTFPEGDGIFWKHWIQTKDGQCGSPLVSTRDGFIVGIHSASNFTNTNNYFTSVPKNFMELLTNQEAQQWVSGWRLNADSVLWGGHKVFMVKPEEPFQPVKEATQL [S135E],0.0552,–,0.0698,–,0.0682,0.0597,0.0543,0.0765,0.0585,–,–,–,–,–,–,–
MGESLFKGPRDYNPISSSICHLTNESDGHTTSLYGIGFGPFIITNKHLFRRNNGTLVVQSLHGVFKVKDTTTLQQHLVDGRDMIIIRMPKDFPPFPQKLKFREPQREERICLVTTNFQTKSMSSMVSDTSCTFPSGDGIFWKVWIQTKDGQCGSPLVSTRDGFIVGIHSASNFTNTNNYFTSVPKNFMELLTNQEAQQWVSGWRLNADSVLWGGHKVFMVKPEEPFQPVKEATQL [H143V],0.0523,0.0637,–,0.0696,0.0573,0.0596,0.0589,0.0584,0.0617,0.0502,0.0549,0.0777,0.036,0.0695,–,–
MGESLFKGPRDYNPISSSICHLTNESDGHTTSLYGIGFGPFIITNKHLFRRNNGTLVVQSLHGVFKVKDTTTLQQHLVDGRDMIIIRMPKDFPPFPQKLKFREPQREERICLVTTNFQTKSMSSMVSDTSCTFPSGDGIFWKHEIQTKDGQCGSPLVSTRDGFIVGIHSASNFTNTNNYFTSVPKNFMELLTNQEAQQWVSGWRLNADSVLWGGHKVFMVKPEEPFQPVKEATQL [W144E],0.0557,0.06,0.0664,–,0.0618,0.0724,0.0701,0.07,0.0226,0.0698,0.0588,–,0.0538,–,–,–
MGESLFKGPRDYNPISSSICHLTNESDGHTTSLYGIGFGPFIITNKHLFRRNNGTLVVQSLHGVFKVKDTTTLQQHLVDGRDMIIIRMPKDFPPFPQKLKFREPQREERICLVTTNFQTKSMSSMVSDTSCTFPSGDGIFWKHWIETKDGQCGSPLVSTRDGFIVGIHSASNFTNTNNYFTSVPKNFMELLTNQEAQQWVSGWRLNADSVLWGGHKVFMVKPEEPFQPVKEATQL [Q146E],0.058,0.0641,0.0769,0.0671,0.0601,–,0.0714,–,–,0.0732,0.0627,0.0797,0.0705,0.0526,–,–
MGESLFKGPRDYNPISSSICHLTNESDGHTTSLYGIGFGPFIITNKHLFRRNNGTLVVQSLHGVFKVKDTTTLQQHLVDGRDMIIIRMPKDFPPFPQKLKFREPQREERICLVTTNFQTKSMSSMVSDTSCTFPSGDGIFWKHWIGTKDGQCGSPLVSTRDGFIVGIHSASNFTNTNNYFTSVPKNFMELLTNQEAQQWVSGWRLNADSVLWGGHKVFMVKPEEPFQPVKEATQL [Q146G],0.0647,–,–,0.074,–,0.0522,–,0.0625,0.0562,–,0.0578,–,0.0634,0.0652,0.0687,–
MGESLFKGPRDYNPISSSICHLTNESDGHTTSLYGIGFGPFIITNKHLFRRNNGTLVVQSLHGVFKVKDTTTLQQHLVDGRDMIIIRMPKDFPPFPQKLKFREPQREERICLVTTNFQTKSMSSMVSDTSCTFPSGDGIFWKHWIQTKDGQCASPLVSTRDGFIVGIHSASNFTNTNNYFTSVPKNFMELLTNQEAQQWVSGWRLNADSVLWGGHKVFMVKPEEPFQPVKEATQL [G153A],0.0679,0.0276,–,–,–,0.0533,0.0551,–,–,–,0.0571,–,–,–,–,–
MGESLFKGPRDYNPISSSICHLTNESDGHTTSLYGIGFGPFIITNKHLFRRNNGTLVVQSLHGVFKVKDTTTLQQHLVDGRDMIIIRMPKDFPPFPQKLKFREPQREERICLVTTNFQTKSMSSMVSDTSCTFPSGDGIFWKHWIQTKDGQCGSPFVSTRDGFIVGIHSASNFTNTNNYFTSVPKNFMELLTNQEAQQWVSGWRLNADSVLWGGHKVFMVKPEEPFQPVKEATQL [L156F],0.0719,–,0.0792,0.0541,0.0691,0.0503,0.0617,–,0.0651,0.0554,–,0.0523,0.0631,0.0611,–,0.0515
MGESLFKGPRDYNPISSSICHLTNESDGHTTSLYGIGFGPFIITNKHLFRRNNGTLVVQSLHGVFKVKDTTTLQQHLVDGRDMIIIRMPKDFPPFPQKLKFREPQREERICLVTTNFQTKSMSSMVSDTSCTFPSGDGIFWKHWIQTKDGQCGSPLVCTRDGFIVGIHSASNFTNTNNYFTSVPKNFMELLTNQEAQQWVSGWRLNADSVLWGGHKVFMVKPEEPFQPVKEATQL [S158C],0.0623,0.0769,0.0493,–,0.0624,0.0674,0.0616,0.0528,–,0.064,–,0.0275,0.0618,0.0588,–,–
MGESLFKGPRDYNPISSSICHLTNESDGHTTSLYGIGFGPFIITNKHLFRRNNGTLVVQSLHGVFKVKDTTTLQQHLVDGRDMIIIRMPKDFPPFPQKLKFREPQREERICLVTTNFQTKSMSSMVSDTSCTFPSGDGIFWKHWIQTKDGQCGSPLVSTRDEFIVGIHSASNFTNTNNYFTSVPKNFMELLTNQEAQQWVSGWRLNADSVLWGGHKVFMVKPEEPFQPVKEATQL [G162E],0.0549,0.0523,–,0.05,0.0562,0.052,0.0662,0.0571,–,–,–,0.0628,0.0564,–,–,0.0673
